How the values were obtained:
[1] = molecular target: T1, recombinant human IL-18 (human, UniProt Q14116 37-193); assay: BiaCore 2000; polypeptide captured on chip by anti-human Fc antibodies, human IL-18 injected; kinetic analysis
T1 construct: Analyte in the BiaCore assay and stimulus (4 pM) in the NFkB-luciferase bioassay; also called hIL-18
T1 sequence (looked up): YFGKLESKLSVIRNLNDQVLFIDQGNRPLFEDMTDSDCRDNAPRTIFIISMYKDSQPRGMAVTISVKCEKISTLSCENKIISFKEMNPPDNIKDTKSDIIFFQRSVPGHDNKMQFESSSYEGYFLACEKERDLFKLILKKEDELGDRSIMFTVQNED
Experimental: hIL-18 Binding Affinity. The affinity of the hIL-18-specific polypeptides for human IL-18, produced by transiently expression in CHOK1 cells, was measured using a BiaCore 2000, as described in WO 00/75319, herein specifically incorporated by reference in its entirety. hIL-18-specific polypeptides were captured onto the chip surface using anti-human Fc antibodies (when the polypeptide comprises an Fc component) or directly coupled to the chip. Varying concentrations of human IL-18 were injected over the surface and the time course of association and dissociation was monitored. Kinetic analysis using BIA evaluation software was performed to obtain the KD.

[2] = molecular target: T1, recombinant human IL-18; assay: cell-based or functional assay

B1: hIL18BPa (58-192) (C129S).hFc (Fc fusion)
chain: AAKQCPALEVTWPEVEVPLNGTLSLSCVACSRFPNFSILYWLGNGSFIEHLPGRLWEGSTSRERGSTGTQLSKALVLEQLTPALHSTNFSCVLVDPEQVVQRHVVLAQLWAGLRATLPPTQEALPSSHSSPQQQG[letters of human IgG1 Fc not shown]
**Q.** For B1, which Kd [1] is on record?
**A.** 0.0058 nM

**Q.** What about the “IC50 (M), HEK293/NFkB-luciferase bioassay” value [2] of the same binder?
**A.** 3.7e-11 M

B2: hIL18BPa (58-192) (C129H).hFc (Fc fusion)
chain: AAKQCPALEVTWPEVEVPLNGTLSLSCVACSRFPNFSILYWLGNGSFIEHLPGRLWEGSTSRERGSTGTQLHKALVLEQLTPALHSTNFSCVLVDPEQVVQRHVVLAQLWAGLRATLPPTQEALPSSHSSPQQQG[letters of human IgG1 Fc not shown]
**Q.** Which Kd [1] does the source give for B2 here?
**A.** 0.01 nM

**Q.** And the “IC50 (M), HEK293/NFkB-luciferase bioassay” value [2]?
**A.** 8e-11 M

B3: hIL18BPa (58-192) (C129K).hFc (Fc fusion)
chain: AAKQCPALEVTWPEVEVPLNGTLSLSCVACSRFPNFSILYWLGNGSFIEHLPGRLWEGSTSRERGSTGTQLKKALVLEQLTPALHSTNFSCVLVDPEQVVQRHVVLAQLWAGLRATLPPTQEALPSSHSSPQQQG[letters of human IgG1 Fc not shown]
**Q.** What does the source list for B3?
**A.** Kd [1]: 0.01 nM; IC50 (M), HEK293/NFkB-luciferase bioassay [2]: 1e-10 M

B4: hIL18R.SG.hIL18BPa (1-192).SG.hFc (Fc fusion)
chain: FNISGCSTKKLLWTYSTRSEEEFVLFCDLPEPQKSHFSHRNRLSPKQVPEHLPFMGSNDLSDVQWYQQPSNGDPLEDIRKSYPHIIQDKCTLHFLTPGVNNSGSYICRPKMIKSPYDVAACVKMILEVKPQTNASCEYSASHKQDLLLGSTGSISCPSLSCQSDAQSPAVTWYKNGKLLSVERSNRIVVDEVYDYHQGTYVCDYTQSDTVSSWTVRAVVQVRTIVGDTKLKPDILDPVEDTLEVELGKPLTISCKARFGFERVFNPVIKWYIKDSDLEWEVSVPEAKSIKSTLKDEIIERNIILEKVTQRDLRRKFVCFVQNSIGNTTQSVQLKEKRSGTPVSQTTTAATASVRSTKDPCPSQPPVFPAAKQCPALEVTWPEVEVPLNGTLSLSCVACSRFPNFSILYWLGNGSFIEHLPGRLWEGSTSRERGSTGTQLCKALVLEQLTPALHSTNFSCVLVDPEQVVQRHVVLAQLWAGLRATLPPTQEALPSSHSSPQQQGSG[letters of human IgG1 Fc not shown]
notes: To be rechecked
**Q.** What does the source list for B4?
**A.** Kd [1]: 0.28 nM; IC50 (M), HEK293/NFkB-luciferase bioassay [2]: 4.13e-10 M

B5: hIL18Rb.hIL18BPa (58-192) (C129S).TG.hFc (Fc fusion)
chain: FNISGCSTKKLLWTYSTRSEEEFVLFCDLPEPQKSHFSHRNRLSPKQVPEHLPFMGSNDLSDVQWYQQPSNGDPLEDIRKSYPHIIQDKCTLHFLTPGVNNSGSYICRPKMIKSPYDVAACVKMILEVKPQTNASCEYSASHKQDLLLGSTGSISCPSLSCQSDAQSPAVTWYKNGKLLSVERSNRIVVDEVYDYHQGTYVCDYTQSDTVSSWTVRAVVQVRTIVGDTKLKPDILDPVEDTLEVELGKPLTISCKARFGFERVFNPVIKWYIKDSDLEWEVSVPEAKSIKSTLKDEIIERNIILEKVTQRDLRRKFVCFVQNSIGNTTQSVQLKEKRSGAAKQCPALEVTWPEVEVPLNGTLSLSCVACSRFPNFSILYWLGNGSFIEHLPGRLWEGSTSRERGSTGTQLSKALVLEQLTPALHSTNFSCVLVDPEQVVQRHVVLAQLWAGLRATLPPTQEALPSSHSSPQQQGTG[letters of human IgG1 Fc not shown]
**Q.** B5 was tested. Which “IC50 (M), HEK293/NFkB-luciferase bioassay” value [2] did it give?
**A.** 1.92e-07 M

B6: hIL18BPa (1-192).SG.hFc (Fc fusion)
chain: TPVSQTTTAATASVRSTKDPCPSQPPVFPAAKQCPALEVTWPEVEVPLNGTLSLSCVACSRFPNFSILYWLGNGSFIEHLPGRLWEGSTSRERGSTGTQLCKALVLEQLTPALHSTNFSCVLVDPEQVVQRHVVLAQLWAGLRATLPPTQEALPSSHSSPQQQGSG[letters of human IgG1 Fc not shown]
notes: also called hIL18BPa.hFc
**Q.** With B6 as the binder, how does the Kd [1] read?
**A.** 0.1 nM

**Q.** And the “IC50 (M), HEK293/NFkB-luciferase bioassay” value [2]?
**A.** 1.16e-10 M

B7: hIL18BPa (1-192).SG.hIL18Rb.SG.hFc (Fc fusion)
chain: TPVSQTTTAATASVRSTKDPCPSQPPVFPAAKQCPALEVTWPEVEVPLNGTLSLSCVACSRFPNFSILYWLGNGSFIEHLPGRLWEGSTSRERGSTGTQLCKALVLEQLTPALHSTNFSCVLVDPEQVVQRHVVLAQLWAGLRATLPPTQEALPSSHSSPQQQGSGFNISGCSTKKLLWTYSTRSEEEFVLFCDLPEPQKSHFSHRNRLSPKQVPEHLPFMGSNDLSDVQWYQQPSNGDPLEDIRKSYPHIIQDKCTLHFLTPGVNNSGSYICRPKMIKSPYDVAACVKMILEVKPQTNASCEYSASHKQDLLLGSTGSISCPSLSCQSDAQSPAVTWYKNGKLLSVERSNRIVVDEVYDYHQGTYVCDYTQSDTVSSWTVRAVVQVRTIVGDTKLKPDILDPVEDTLEVELGKPLTISCKARFGFERVFNPVIKWYIKDSDLEWEVSVPEAKSIKSTLKDEIIERNIILEKVTQRDLRRKFVCFVQNSIGNTTQSVQLKEKRSG[letters of human IgG1 Fc not shown]
notes: To be rechecked
**Q.** What does the source list for B7?
**A.** Kd [1]: 0.5 nM; IC50 (M), HEK293/NFkB-luciferase bioassay [2]: 2.5e-10 M

B8: hIL18BPa (58-192) (C129S) (S184N).TG.hFc (Fc fusion)
chain: AAKQCPALEVTWPEVEVPLNGTLSLSCVACSRFPNFSILYWLGNGSFIEHLPGRLWEGSTSRERGSTGTQLSKALVLEQLTPALHSTNFSCVLVDPEQVVQRHVVLAQLWAGLRATLPPTQEALPSNHSSPQQQGTG[letters of human IgG1 Fc not shown]
**Q.** With B8 as the binder, how does the “IC50 (M), HEK293/NFkB-luciferase bioassay” value [2] read?
**A.** 1.48e-11 M

B9: hIL18BPa (58-192) (C129S).TG.hFc (Fc fusion)
chain: AAKQCPALEVTWPEVEVPLNGTLSLSCVACSRFPNFSILYWLGNGSFIEHLPGRLWEGSTSRERGSTGTQLSKALVLEQLTPALHSTNFSCVLVDPEQVVQRHVVLAQLWAGLRATLPPTQEALPSSHSSPQQQGTG[letters of human IgG1 Fc not shown]
**Q.** B9 was tested. Which Kd [1] did it give?
**A.** 0.012 nM

**Q.** And the “IC50 (M), HEK293/NFkB-luciferase bioassay” value [2]?
**A.** 4.75e-11 M

B10: hIL18BPa (58-192).TG.hFc (Fc fusion)
chain: AAKQCPALEVTWPEVEVPLNGTLSLSCVACSRFPNFSILYWLGNGSFIEHLPGRLWEGSTSRERGSTGTQLCKALVLEQLTPALHSTNFSCVLVDPEQVVQRHVVLAQLWAGLRATLPPTQEALPSSHSSPQQQGTG[letters of human IgG1 Fc not shown]
**Q.** Which “IC50 (M), HEK293/NFkB-luciferase bioassay” value [2] does the source give for B10 here?
**A.** 1.2e-10 M

B11: hIL18BPa (58-192) (C129S).SG.hFc (Fc fusion)
chain: AAKQCPALEVTWPEVEVPLNGTLSLSCVACSRFPNFSILYWLGNGSFIEHLPGRLWEGSTSRERGSTGTQLSKALVLEQLTPALHSTNFSCVLVDPEQVVQRHVVLAQLWAGLRATLPPTQEALPSSHSSPQQQGSG[letters of human IgG1 Fc not shown]
**Q.** B11 was tested. Which “IC50 (M), HEK293/NFkB-luciferase bioassay” value [2] did it give?
**A.** 9e-11 M

B12: hIL18BPa (58-181) (C129S).TG.hFc (Fc fusion)
chain: AAKQCPALEVTWPEVEVPLNGTLSLSCVACSRFPNFSILYWLGNGSFIEHLPGRLWEGSTSRERGSTGTQLSKALVLEQLTPALHSTNFSCVLVDPEQVVQRHVVLAQLWAGLRATLPPTQEALTG[letters of human IgG1 Fc not shown]
**Q.** With B12 as the binder, how does the “IC50 (M), HEK293/NFkB-luciferase bioassay” value [2] read?
**A.** 9e-11 M
